Results: PubChem BioAssay AID624418 (National Center for Advancing Translational Sciences (NCATS), 2012)
Screen size: about 410,000 compounds; about 530 (0.13%) were called active. The inconclusive results got no clear call from the source; some entries with a clear call stand among them for comparison. Calls follow the shape of the dose curve; as a rule, active = well fitted inhibition curve with a large enough effect; inconclusive = small, poorly fitted or top-dose-only effect, or another doubt; inactive = no such curve, though single readings can be large or run the other way. Potencies of inconclusive entries are doubtful fits and often do not repeat.

Assay: qHTS of GLP-1 Receptor Inverse Agonists: Cytotox Screen
Conditions: HEK293 cAMP-luciferase reporter cells, luminescence, 24 h; activity change, negative = inhibition: at 38.3 µM (top of the series) unless noted
In short: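 Quantitative HTS format, 1536 wells, 200 cells/uL seeded. Compounds: 23 nL, 24 h, 37 °C. Detection: luciferase reagent, luminescence at 12 min RT; decreased signal taken as cytotoxic.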
% is scaled to controls: 0 for no effect and ±100 for the full control effect; potency is read from the fitted curve at half-maximal effect.

| Compound | activity change, negative = inhibition | Potency |
| --- | --- | --- |
| CC(C)(C)C1COc2ccccc2N1C(=O)c1ccccc1Cl (stereo not given) | inactive: -10.2% | – |
| Cc1cccc(N2CCN(S(=O)(=O)c3ccc4[nH]c(=O)ccc4c3)CC2)c1C | – | inconclusive: 7.08 µM [inhibitor, partial curve] |
| S=C(Nc1ccc(Br)cc1)N1CCN(C2CCCCC2)CC1 | – | inconclusive: 28.2 µM [inhibitor, single point] |
| CCCCNCC(=O)Nc1ccc(NC(=O)CNCCCC)cc1 | – | inconclusive: 8.91 µM [inhibitor, partial curve] |
| O=C1/C(=C/c2cccs2)N=C(c2cccs2)N1Nc1ccccc1 | inactive: -10.2% | – |
| COCCN(CCOC)Cc1cc(=O)oc2cc(OC)ccc12 | inactive: 3.24% | – |
| COc1ccc(-c2cc(=O)n(-c3ccc([N+](=O)[O-])cc3)[nH]2)cc1 | – | inconclusive: 14.1 µM [inhibitor, single point] |
| O=C(c1ccco1)N1CCN(C(=O)N2c3ccccc3Sc3ccccc32)CC1 | – | active: 3.16 µM |
| CCOC(=O)N/C(N)=N/c1nc2ccccc2s1 | – | inconclusive: 28.2 µM [inhibitor, single point] |
| c1cc2c3c(cccc3c1)NN=N2 | – | inconclusive: 28.2 µM [inhibitor, single point] |
| O=C(/C=C/c1ccc(Cl)cc1)N1CCOCC1 | inactive: -10.4% | – |
| Cc1ccc(S(=O)(=O)N[C@H](C(=O)N2CCC3(O)CCCCC3C2)c2ccccc2)cc1 (stereo not given in full) | inactive: 0.85% | – |
| Cc1c2c(nc3ccccc13)CCC(C(C)(C)C)C2 (stereo not given) | – | inconclusive: 28.2 µM [inhibitor, single point] |
| C[C@@H]1CN([C@@H](C)CO)C(=O)c2cc(NC(=O)Nc3ccc(F)cc3)ccc2O[C@@H]1CN(C)Cc1ccc(Oc2ccccc2)cc1 | – | inconclusive: 0.501 µM [inhibitor, full curve, poor fit] |
| Cc1ccc(C)c(S(=O)(=O)c2nnn3c2nc(Nc2ccc(F)c(Cl)c2)c2sccc23)c1 | inactive: -14% | – |
| CCCCOC(=O)c1ccc(NC(=O)Cc2coc3ccc(C(C)C)cc23)cc1 | – | inconclusive: 28.2 µM [inhibitor, single point] |
| CC(C)c1ccc(/C=N\NC(=O)c2ccc(Cn3cccn3)o2)cc1 | inactive: -0.559% | – |
| CN(C)NC(=S)Nc1cccc(C(F)(F)F)c1 | – | inconclusive: 10 µM [inhibitor, partial curve, poor fit] |
| CCc1ccc(NC(=O)CSc2nc3ccccc3c(=O)n2CCCN2CCC(C)CC2)cc1 | – | inconclusive: 22.4 µM [inhibitor, partial curve, poor fit] |
| Cc1ccccc1C(=O)NC(=S)NCCc1ccccc1 | – | inconclusive: 12.6 µM [inhibitor, single point] |
| Cn1c(C(=O)NC2CCCCC2)cc2c(=O)n3ccccc3nc21 | inactive: 39.3% | – |
| Cc1cc(C)c2c(CN3CCN(C/C=C/c4ccccc4)CC3)cc(=O)oc2c1 | – | inconclusive: 28.2 µM [inhibitor, single point] |
| Cc1cc(C)n2nc(C(=O)OCC(=O)c3ccccc3)nc2n1 | inactive: 16.7% | – |
| CN(C)S(=O)(=O)c1ccc(N2CCCC2)c(C(=O)Nc2nc(-c3cc(F)ccc3F)cs2)c1 | – | inconclusive: 28.2 µM [inhibitor, single point] |

| Compound | activity change, negative = inhibition | Potency |
| --- | --- | --- |
| COC(=O)C(C(=O)OC)c1ccccc1NS(=O)(=O)c1ccc(C)cc1 | – | inconclusive: 28.2 µM [inhibitor, single point] |
| COCCOC(=O)C1=C(C)NC2=C(C(=O)CC(C)(C)C2)C1c1ccc2c(c1)OCO2 (stereo not given) | – | inconclusive: 1.78 µM [inhibitor, full curve] |
| CN1CCN(CCCN2c3ccccc3Sc3ccc(C(F)(F)F)cc32)CC1 | – | inconclusive: 22.4 µM [inhibitor, single point] |
| S=C1NC[C@H](c2ccccc2)N1CC1CCCCC1 | – | inconclusive: 31.6 µM [inhibitor, partial curve, poor fit] |
| C/C(=N\Nc1nc2ccccc2[nH]1)c1ccc(C)o1 | – | inconclusive: 28.2 µM [inhibitor, single point] |
| CCOCCCNc1ccc(N2C(=O)CCCC2=O)cc1[N+](=O)[O-] | – | inconclusive: 10 µM [inhibitor, single point] |
| Oc1ccccc1N=Cc1c(O)ccc2oc3c(c12)CCCC3 | inactive: 3.32% | – |
| Cc1ccccc1NC(=O)Cn1nc(-c2ccc(F)cc2)c2cnc3ccccc3c21 | inactive: -14.2% | – |
| CC1CCN(C(=O)Cn2cnc3c(cnn3C(C)(C)C)c2=O)CC1 | inactive: 5.78% [at 0.307 µM] | – |
| Cc1ccc(N2CC(NC(=O)c3ccc4c(c3)OCO4)CC2=O)cc1 (stereo not given) | inactive: -2.41% | – |
| Cc1ccsc1/C=N/NC(=O)c1cc(-c2ccncc2)nc2ccccc12 | – | inconclusive: 31.6 µM [inhibitor, single point] |
| COc1ccc(/C=N/NC(=S)Nc2cc(C(F)(F)F)ccc2Cl)cc1 | – | inconclusive: 28.2 µM [inhibitor, single point] |
| Cc1cccc2c1NC(=O)/C2=C\C(=O)c1cccs1 | – | inconclusive: 10 µM [inhibitor, single point] |
| O=C(N/N=C/c1ccc(-c2ccccc2)o1)c1ccccc1O | – | inconclusive: 14.1 µM [inhibitor, single point] |
| CN(C)c1ccc(NS(=O)(=O)c2cc(Cl)ccc2Cl)cc1 | – | inconclusive: 11.2 µM [inhibitor, single point] |
| Cc1c(C(=O)NCCCN2CCOCC2)sc2nc(-c3ccc(F)cc3)cn12 | inactive: 5.33% | – |
| CS(=O)(=O)c1sc(C(=O)NC(=S)Nc2ccc(OC(F)(F)F)cc2)c2c1C=CCC2 | – | inconclusive: 14.1 µM [inhibitor, single point] |
| O=C(Nc1ccc(N=Nc2ccccc2)c(NC(=O)C2CCCO2)c1)C1CCCO1 (stereo not given) | – | inconclusive: 28.2 µM [inhibitor, single point] |
| N/C(=N\OC(=O)c1cccs1)c1ccccc1 | – | inconclusive: 11.2 µM [inhibitor, single point] |
| COc1ccc(OC)c(S(=O)(=O)N(C(C)=O)c2ccc3oc(=O)sc3c2)c1 | inactive: -12.9% | – |
| O=C(N/N=C/c1ccccc1O)C1CC(=O)N(c2ccc(Cl)cc2)C1 (stereo not given) | inactive: -24.1% | – |
| Cc1cccc(C(=O)Nc2ccc(NC(=O)c3cccc(C)c3)cc2)c1 | inactive: -10.3% | – |
| O=C(Nc1ccc(Cl)c(S(=O)(=O)N2CCCCC2)c1)C1=COCCO1 | inactive: -10.9% | – |
| COc1ccc(/C=C/C(=O)Oc2cccc(/C=N/NC(=O)c3cccc(F)c3)c2)cc1 | – | inconclusive: 28.2 µM [inhibitor, single point] |

| Compound | activity change, negative = inhibition | Potency |
| --- | --- | --- |
| CCOc1ccc(-n2c(=O)cc(N3CCN(c4ccc(F)cc4)CC3)[nH]c2=O)cc1 | inactive: -5.22% | – |
| COCCN(CCOC)C(=O)c1cc2c(=O)n3ccccc3nc2n1C | inactive: 179% | – |
| COc1cc(-c2nc3ccc(C)cn3c2Nc2ccc(Cl)cc2)ccc1O | – | inconclusive: 7.94 µM [inhibitor, partial curve, poor fit] |
| CCCCCCCCN1C(=O)[C@H](CC(=O)N2CCN(C(=O)C3CC3)CC2)C[C@@]2(C(=O)OC)CC(C)(C)CC=C12 | – | inconclusive: 12.6 µM [inhibitor, single point] |
| Cc1ccc(NC(=S)NC(NC(=O)c2ccccc2)C(Cl)(Cl)Cl)c(C)c1 (stereo not given) | – | inconclusive: 14.1 µM [inhibitor, single point] |
| NC1=NC(=O)/C(=C/C=C/c2cccs2)S1 | – | inconclusive: 10 µM [inhibitor, partial curve] |
| CN1C(=O)/C(=C2/C=Cc3ccccc3N2CCCS(=O)(=O)O)SC1=S | – | active: 8.91 µM |
| Cc1ccc(-c2nn(-c3ccccc3)cc2C2SCC(=O)N2Cc2ccccc2)o1 (stereo not given) | inactive: 5.6% | – |
| CCCOC(=O)C1NC(=O)N2C(C(=O)OCCC)C(C)(C)S[C@H]12 (stereo not given in full) | – | inconclusive: 0.501 µM [inhibitor, full curve, poor fit] |
| O=C(C(=O)N(Cc1ccccc1)Cc1ccccc1)c1c(-c2ccccc2)[nH]c2ccccc12 | – | inconclusive: 5.01 µM [inhibitor, partial curve, poor fit] |
| CCN1C(=S)SC(=O)C1=C1C=C(C)N(Cc2ccco2)C(C)=C1 | – | inconclusive: 17.8 µM [inhibitor, partial curve, poor fit] |
| CCCCCN(C(=O)CCC(=O)OCC(=O)c1ccc(C(C)(C)C)cc1)c1c(N)n(CCCC)c(=O)[nH]c1=O | – | inconclusive: 20 µM [inhibitor, single point] |
| O=S(=O)(c1ccc(Br)cc1)c1nnn2c1nc(NCc1cccs1)c1sccc12 | inactive: 1.13% | – |
| CC(=O)N1N=C(c2ccc(C)cc2)CC1c1ccc2c(c1)OCO2 (stereo not given) | inactive: 9.99% | – |
| CCN1C(=O)[C@H]2[C@@H](c3ccc(-c4ccccc4)cc3)N3CCC[C@@]3(C(=O)OC)[C@H]2C1=O | – | inconclusive: 3.16 µM [inhibitor, full curve, poor fit] |
| Cc1cccc(C)c1N1CCN(c2ccc3nnc(C(F)(F)F)n3n2)CC1 | – | inconclusive: 12.6 µM [inhibitor, partial curve, poor fit] |
| Cc1nn(Cc2ccccc2)c(C)c1C(=O)OCC(=O)c1cc(C)n(C2CC2)c1C | – | inconclusive: 31.6 µM [inhibitor, single point] |
| CCCOc1ccc(C(=O)C(CN2CCCC2)c2ccccc2)cc1 (stereo not given) | – | inconclusive: 22.4 µM [inhibitor, single point] |
| CC(C)=NNc1cnnc2ccc([N+](=O)[O-])cc12 | inactive: -13.2% | – |
| COc1ccc(NC(=S)NC(=O)c2ccccc2Cl)cc1 | inactive: -29.8% | – |
| O=C(CCS(=O)(=O)c1ccc(Br)cc1)Nc1ccc(Br)cc1F | inactive: -9.01% | – |
| CCCCCCN1C[C@H](n2cc(C3CC3)nn2)[C@@H](O)C[C@@H]1c1ccccc1 | – | inconclusive: 28.2 µM [inhibitor, single point] |
